Data from publication PMC7181697, “Molecular basis for assembly of the shieldin complex and its implications for NHEJ” (Nature Communications, 2020).

Tests used:
[1] = molecular target: the molecule itself; assay: SEC-MALS; co-expressed and co-purified REV7-SHLD3(1-82) samples; 100 μl at 5 mg/ml, WTC-015S5 column, 20 mM Tris-HCl pH 8.0, 150 mM NaCl, 1% glycerol, 1 mM TCEP, 0.01% NaN3
REV7^E35A-SHLD3(1–82) [2] = molecular target: T1, REV7^E35A-SHLD3(1–82) (human, UniProt Q9UI95; Q6ZNX1 1-82, E35A); assay: ITC; in the context of MBP-SHLD2(1-60) (Supplementary Fig. 5a, b); details: both partners purified
T1 construct: REV7 (MAD2B, MAD2L2), human, full length; SHLD3, human, residues 1-82; cloned without His-tag; Homogeneous C-REV7-SHLD3(1-82) heterodimer by SEC-MALS; also called E35A-1–82; source: E. coli BL21(DE3), co-expressed (pETduet), purified (Ni-IDA, SEC)

REV7^E35A-SHLD3(1–82) [3] = molecular target: T1, REV7^E35A-SHLD3(1–82); assay: ITC; ITC200, 25 °C, 20 mM Tris pH 8.0, 150 mM NaCl, 1% glycerol, 1 mM TCEP; one set of sites model; details: both partners purified
T1 sequence (Q9UI95 whole entry E35A, chain 1 of 2, the tested form may be a part): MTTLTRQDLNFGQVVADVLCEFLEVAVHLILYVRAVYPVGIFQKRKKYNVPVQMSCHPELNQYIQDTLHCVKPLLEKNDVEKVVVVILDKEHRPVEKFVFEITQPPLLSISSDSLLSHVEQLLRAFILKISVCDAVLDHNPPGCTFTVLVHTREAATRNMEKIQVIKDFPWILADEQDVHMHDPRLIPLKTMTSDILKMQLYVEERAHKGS
T1 sequence (Q6ZNX1 1-82, chain 2 of 2, further chain): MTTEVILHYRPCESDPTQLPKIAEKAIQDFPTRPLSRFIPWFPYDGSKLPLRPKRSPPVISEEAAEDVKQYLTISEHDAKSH

REV7^K44A-SHLD3(1–82) = molecular target: T2, REV7^K44A-SHLD3(1–82) (human, UniProt Q9UI95; Q6ZNX1 1-82, K44A); assay: as above; details: both partners purified
Sequence of REV7^K44A-SHLD3(1–82) (Q9UI95 whole entry K44A, chain 1 of 2, the tested form may be a part): as the sequence (Q9UI95 whole entry E35A, chain 1 of 2, the tested form may be a part) above, with A35E, K44A counted along it
Sequence of REV7^K44A-SHLD3(1–82) (Q6ZNX1 1-82, chain 2 of 2, further chain): as the sequence (Q6ZNX1 1-82, chain 2 of 2, further chain) above
T2 construct: REV7 (MAD2B, MAD2L2), human, full length; SHLD3, human, residues 1-82; cloned without His-tag; Homogeneous C-REV7-SHLD3(1-82) heterodimer by SEC-MALS; also called K44A-1–82; C-REV7 (as used in the ITC experiments); source: E. coli BL21(DE3), co-expressed (pETduet), purified (Ni-IDA, SEC)

[4] = molecular target: T3, REV7^K44A-SHLD3(1–82)^F38A (human, UniProt Q9UI95; Q6ZNX1 1-82, K44A | F38A); assay: as above; details: both partners purified
T3 construct: REV7 (MAD2B, MAD2L2), human, full length; SHLD3, human, residues 1-82; cloned without His-tag; source: E. coli BL21(DE3), co-expressed (pETduet), purified (Ni-IDA, SEC)

REV7^K44A-SHLD3(38–82) = molecular target: T4, REV7^K44A-SHLD3(38–82) (human, UniProt Q9UI95; Q6ZNX1 38-82, K44A); assay: as above; details: both partners purified
Sequence of REV7^K44A-SHLD3(38–82) (Q9UI95 whole entry K44A, chain 1 of 2, the tested form may be a part): as the sequence (Q9UI95 whole entry E35A, chain 1 of 2, the tested form may be a part) above, with A35E, K44A counted along it
Sequence of REV7^K44A-SHLD3(38–82) (Q6ZNX1 38-82, chain 2 of 2, further chain): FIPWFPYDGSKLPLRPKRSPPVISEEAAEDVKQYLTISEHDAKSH
T4 construct: REV7 (MAD2B, MAD2L2), human, full length; SHLD3, human, residues 38-82; cloned without His-tag; source: E. coli BL21(DE3), co-expressed (pETduet), purified (Ni-IDA, SEC)

REV7^K44A-SHLD3(28-82) = molecular target: T5, REV7^K44A-SHLD3(28-82) (human, UniProt Q9UI95; Q6ZNX1 28-82, K44A); assay: as above; details: both partners purified
Sequence of REV7^K44A-SHLD3(28-82) (Q9UI95 whole entry K44A, chain 1 of 2, the tested form may be a part): as the sequence (Q9UI95 whole entry E35A, chain 1 of 2, the tested form may be a part) above, with A35E, K44A counted along it
Sequence of REV7^K44A-SHLD3(28-82) (Q6ZNX1 28-82, chain 2 of 2, further chain): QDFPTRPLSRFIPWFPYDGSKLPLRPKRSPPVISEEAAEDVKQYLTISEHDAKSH
T5 construct: REV7 (MAD2B, MAD2L2), human, full length; SHLD3, human, residues 28-82; cloned without His-tag; source: E. coli BL21(DE3), co-expressed (pETduet), purified (Ni-IDA, SEC)

REV7^K44A-SHLD3(45–82) = molecular target: T6, REV7^K44A-SHLD3(45–82) (human, UniProt Q9UI95; Q6ZNX1 45-82, K44A); assay: as above; details: both partners purified
Sequence of REV7^K44A-SHLD3(45–82) (Q9UI95 whole entry K44A, chain 1 of 2, the tested form may be a part): as the sequence (Q9UI95 whole entry E35A, chain 1 of 2, the tested form may be a part) above, with A35E, K44A counted along it
Sequence of REV7^K44A-SHLD3(45–82) (Q6ZNX1 45-82, chain 2 of 2, further chain): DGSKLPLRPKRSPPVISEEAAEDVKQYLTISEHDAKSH
T6 construct: REV7 (MAD2B, MAD2L2), human, full length; SHLD3, human, residues 45-82; cloned without His-tag; source: E. coli BL21(DE3), co-expressed (pETduet), purified (Ni-IDA, SEC)

[5] = molecular target: T7, REV7^K44A-SHLD3(1–82)^FIPWFP/AIAAAA (human, UniProt Q9UI95; Q6ZNX1 1-82, K44A | FIPWFP/AIAAAA); assay: as above; details: both partners purified
T7 construct: REV7 (MAD2B, MAD2L2), human, full length; SHLD3, human, residues 1-82; the FXPWFP motif stands at 38-43; cloned without His-tag; also called REV7^K44A-SHLD3(1–82)^5A; source: E. coli BL21(DE3), co-expressed (pETduet), purified (Ni-IDA, SEC)

B1: REV7^Y63A (natural protein)
chain: not shown
notes: REV7 (MAD2B, MAD2L2), human, full length; source: E. coli BL21(DE3), purified (Ni-IDA, SEC); alone or co-expressed with SHLD3([…])
binding result [1]: binds

B2: REV7^W171A (natural protein)
chain: not shown
notes: as for B1
binding result [1]: binds

B3: REV7^K129A (natural protein)
chain: not shown
notes: REV7 (MAD2B, MAD2L2), human, full length; also called O-REV7 (as used in the ITC and SEC experiments); source: E. coli BL21(DE3), purified (Ni-IDA, SEC); alone or co-expressed with SHLD3([…])
Kd (REV7^E35A-SHLD3(1–82) [2]): 60 ± 19 nM
Kd (REV7^E35A-SHLD3(1–82) [3]): ~280 nM
Kd (REV7^K44A-SHLD3(1–82)): ~110 nM
Kd [4]: 1800 nM
Kd (REV7^K44A-SHLD3(38–82)): 470 nM
Kd (REV7^K44A-SHLD3(28-82)): 200 nM
Kd (REV7^K44A-SHLD3(45–82)): 4100 nM
Kd [5]: 3300 nM

B4: REV7^K129A-REV3([…]) (complex)
chain 1: [about 200 residues not spelt out]
chain 2: MLTPTPDSSPRSTSSPSQSKNGSFTPRTANILKPLMSPPSREEIMATLLDHDLSETIYQE
notes: REV7 (MAD2B, MAD2L2), human, full length; also called represents C-REV7
Kd (REV7^E35A-SHLD3(1–82) [3]): 6600 nM
